Results published in PMC4336329 (PLoS ONE, 2015).
Hit rate of the full screen: of about 310,000 compounds, about 14,000 (4.5%) showed an effect of 50% or more. The effect is printed as a negative number. The list shows a part of the results.

Target: human ether-à-go-go-related gene (hERG) potassium channel (human, UniProt Q12809)
Assay: primary screen, population patch clamp on CHO cells stably expressing hERG
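Further: peak tail current of the secondary pulse compared with the same well before compound.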

Chain of human ether-à-go-go-related gene (hERG) potassium channel (Q12809 whole entry, looked up): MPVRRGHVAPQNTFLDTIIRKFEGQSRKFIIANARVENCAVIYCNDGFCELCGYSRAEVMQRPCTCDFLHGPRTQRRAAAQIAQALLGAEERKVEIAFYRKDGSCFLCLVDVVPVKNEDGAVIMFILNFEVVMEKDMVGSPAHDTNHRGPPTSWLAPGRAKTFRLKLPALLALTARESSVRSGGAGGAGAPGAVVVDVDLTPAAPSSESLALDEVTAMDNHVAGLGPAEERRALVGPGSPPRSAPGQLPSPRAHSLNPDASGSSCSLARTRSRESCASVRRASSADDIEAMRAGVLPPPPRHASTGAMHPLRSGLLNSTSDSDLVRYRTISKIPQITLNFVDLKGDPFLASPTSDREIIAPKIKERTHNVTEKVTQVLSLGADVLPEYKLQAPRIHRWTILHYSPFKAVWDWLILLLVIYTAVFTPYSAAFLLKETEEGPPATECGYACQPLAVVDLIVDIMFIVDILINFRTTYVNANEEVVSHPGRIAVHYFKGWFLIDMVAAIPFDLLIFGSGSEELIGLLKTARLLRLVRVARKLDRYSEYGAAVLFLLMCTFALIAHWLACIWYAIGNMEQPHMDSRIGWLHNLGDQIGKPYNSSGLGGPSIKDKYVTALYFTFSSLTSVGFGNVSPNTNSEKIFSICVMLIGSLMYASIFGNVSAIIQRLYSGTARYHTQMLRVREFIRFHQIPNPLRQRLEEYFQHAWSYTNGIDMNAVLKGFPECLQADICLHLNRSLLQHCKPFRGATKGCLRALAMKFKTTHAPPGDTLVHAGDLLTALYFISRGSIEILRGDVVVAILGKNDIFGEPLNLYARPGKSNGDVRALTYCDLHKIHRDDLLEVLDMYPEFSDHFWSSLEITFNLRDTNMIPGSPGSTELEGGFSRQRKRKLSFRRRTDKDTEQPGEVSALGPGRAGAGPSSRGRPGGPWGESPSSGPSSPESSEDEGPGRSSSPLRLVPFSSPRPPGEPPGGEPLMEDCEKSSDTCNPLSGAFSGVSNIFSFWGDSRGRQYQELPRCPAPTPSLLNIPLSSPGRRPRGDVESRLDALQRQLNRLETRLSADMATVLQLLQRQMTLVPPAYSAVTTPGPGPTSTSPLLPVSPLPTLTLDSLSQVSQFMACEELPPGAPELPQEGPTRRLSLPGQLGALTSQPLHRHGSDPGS

Row | Structure (SMILES) | hERG current change (%, negative = inhibition) at 10uM [%]
1 | Clc1ccc(SCc2cc(Cl)nc(-c3ccccc3)n2)cc1 | 12.2
2 | O=C(CC(CC(=O)c1ccc(Br)cc1)c1cccnc1)c1ccc(Br)cc1 | 15.4
3 | CC1=NN(C(C#N)c2c(C)nn(Cc3ccccc3)c2C)C(C)(C)C1 (stereo not drawn) | 17.3
4 | CCOC(=O)c1ccc(NCc2ccncc2)cc1 | -1.66
5 | Cc1c(C(=O)N(Cc2cccc(Br)c2)C2CCS(=O)(=O)C2)oc2ccc(F)cc12 (stereo not drawn) | 6.32
6 | N#Cc1cc(C#N)c(N2CCN(c3cccc(Cl)n3)CC2)nc1N | -43.8
7 | Cc1cc(C(=O)N2CCCC(N3CCN(c4cccc(C(F)(F)F)c4)CC3)C2)nn1C (stereo not drawn) | -16.7
8 | O=S(=O)(c1ccc(Cl)cc1Cl)N1CCCC1c1cccnc1 (stereo not drawn) | 7.32
9 | CCC(C)NC(=O)C1(O)c2cc(Br)ccc2NC(=O)N1c1cccc(OC)c1 (stereo not drawn) | 16.7
10 | CCN1CCCC(OC(=O)c2cc(-c3ccccc3Cl)nc3ccccc23)C1.Cl (stereo not drawn) | -65.3
11 | Cn1c(NC(=O)c2ccc(Br)o2)cc(=O)n(C)c1=O | -8.27
12 | CCOC(=O)c1cncc(C#CCOC(=O)Nc2ccc(OC(F)(F)F)cc2)c1 | 17.9
13 | CC(C)Cc1nn2c(=O)cc(COc3ccc(NC(=O)c4ccco4)cc3)nc2s1 | 13.1
14 | Cc1csc(NC(=O)c2nc(-c3ccccc3)n(-c3ccccc3)n2)n1 | -79.2
15 | COC(=O)C(C(=O)OC)c1ncc(C(F)(F)F)cc1Cl | 28.2
16 | O=C(Nc1nnc(-c2cc(Cl)ccc2Cl)o1)C1=COCCO1 | -7.18
17 | O=C(NNC(=O)c1cccs1)c1ccc(Cl)nc1 | -5.05
18 | O=C(COC(=O)/C=C/c1ccc2c(c1)OCO2)NC1CC1 | -0.722
19 | CCc1ccc(NC(=O)CCS(=O)(=O)c2cccc3nsnc23)cc1 | -33
20 | CCN(CC(=O)Nc1ccc(NC(C)=O)cc1)C(=O)Cc1ccc(S(=O)(=O)N2CCOCC2)s1 | 4.75
21 | CCC(=NCCN1CCNCC1)C1=C(O)CC(C)(C)CC1=O | 0.851
22 | CCOC(=O)C(=Cc1ccc(Br)cc1)C(=O)OCC | 2.7
23 | CCOC(CNC(=O)c1ccc2c(c1)ncn2-c1cccc(F)c1)OCC | -17.3
24 | C=CCn1cc(C(=O)NCCN(CC)CC)c(=O)c2cc(S(=O)(=O)N3CCCCCC3)ccc21 | -71.6
